According to PubChem BioAssay AID900 (National Center for Advancing Translational Sciences (NCATS), 2007):
Values joined by “and” are separate entries in the source; they are usually repeats but may differ in a detail not shown here. Identical values can stand only once. In all, about 75,000 compounds went through this assay and about 20 (0.03%) were called active. Inconclusive means that the source gave no clear call. Such entries were picked first, then a sample of the others. Calls follow the shape of the dose curve; as a rule, active = well fitted inhibition curve with a large enough effect; inconclusive = small, poorly fitted or top-dose-only effect; inactive = flat fitted curve, though single readings scatter. Where the call is inconclusive, the potency comes from a doubtful curve fit.

molecular target: Caspase-1 (Homo sapiens) (UniProt P29466); experiment: qHTS Assay for Allosteric/Competitive Inhibitors of Caspase-1; conditions: Caspase-1 enzyme, Ac-WEHD-AFC fluorogenic rate; activity change, negative = inhibition: at 57.5 µM (top of the series) unless noted;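 as to activity change, negative = inhibition: plate controls were vehicle for no effect and no substrate for full effect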
Potency is read from the fitted curve at half-maximal effect; tags tell the direction and shape of the fitted curve or compound fluorescence and quenching.

SMILES	activity change, negative = inhibition	Potency
Clc1ccccc1-c1cncnc1NCc1cccs1	inactive: -4.59%	–
Cn1c(=O)c(-c2cccc(C#N)c2)nc2cnc(Oc3ccccc3)nc21	–	inconclusive: 25.1 µM [inhibitor, single point]
O=C(CN1CCOCC1)N1CCN(S(=O)(=O)c2ccccc2)C1c1ccccc1 (stereo unspecified)	inactive: 0.274%	–
CCOC(=O)c1c(NC(=O)c2ccc(Cl)s2)sc(C)c1C	–	inconclusive: 2.51 µM [inhibitor, partial curve]
O=C(CN1CCc2ccccc2C1)c1cccs1	–	inconclusive: 31.6 µM [inhibitor, partial curve]
Cc1ccc(Cn2c(C)nc3c(c2=O)c2nc4ccccc4nc2n3Cc2ccco2)cc1	–	inconclusive: 31.6 µM [inhibitor, partial curve]
Cc1c(C(=O)OC2CCC(C)CC2)[nH]c2c1C(=O)CCC2 (stereo unspecified)	inactive: -5.46%	–
S=c1ccss1	inactive: -4.94%	–
O=C1CN(/N=C/c2ccc([N+](=O)[O-])o2)C(=O)N1	inconclusive: -16.8% [inhibitor]	–
COc1ccc2cc(C#N)c(N3CCN(Cc4nnnn4CCC(C)C)CC3)nc2c1	–	inconclusive: 25.1 µM [inhibitor, partial curve]
CN1CCN(Cc2nc3c(c(=O)n(C)c(=O)n3C)n2CCc2ccccc2)CC1	inconclusive: -19.3% [inhibitor]	–
N#CC1=C(SCC(=O)c2cc3ccccc3oc2=O)NC(=O)C(C#N)C12CCCC2 (stereo unspecified)	–	inconclusive: 31.6 µM [inhibitor, partial curve]
COc1cc(C(Nc2ccccn2)c2ccc3ccc(C)nc3c2O)cc(OC)c1O (stereo unspecified)	–	inconclusive: 31.6 µM [inhibitor, single point]
CN1CCCc2cc(C#N)c(=O)[nH]c21	–	inconclusive: 31.6 µM [inhibitor, partial curve]
CC(C)(C)OC(=O)[C@H]([C@@H]1N[C@@H](C(=O)O)C(C)(C)S1)N1C(=O)c2ccccc2C1=O	inactive: 1.36% [at 11.5 µM]	–
COc1ccccc1N1CCN(C(CNC(=O)C2CCCCC2)c2cccnc2)CC1 (stereo unspecified)	inconclusive: -18.2% [inhibitor]	–
CCc1cc2c(=O)c(Oc3ccccc3)c(C)oc2cc1O	–	inconclusive: 31.6 µM [inhibitor, partial curve]
COc1ccccc1NS(=O)(=O)c1ccc(C)c(C(=O)NCC2CCCO2)c1 (stereo unspecified)	inactive: -3.34%	–
COc1ncc2nc(-c3ccc(Cl)cc3)c(=O)n(C)c2n1	–	inconclusive: 12.6 µM [inhibitor, partial curve]
Cc1ccc2c(c1)c1c3n2CC(=C2C(=O)OC(C)(C)OC2=O)NC3CCC1 (stereo unspecified)	–	inconclusive: 25.1 µM [inhibitor, partial curve]
Cc1ccc(N(CC(=O)NCc2ccco2)S(=O)(=O)c2ccccc2)cc1	inactive: -4.5%	–
CN1CCc2c(sc(/N=C/c3cccs3)c2C(N)=O)C1	–	inconclusive: 15.8 µM [fluorescent]
O=C(O)c1cc2cc(Cl)cc(Cl)c2oc1=O	–	inconclusive: 25.1 µM [inhibitor, partial curve]
N#CC1=C(N)Oc2c(ccc3cccnc23)C1c1cccnc1 (stereo unspecified)	–	inconclusive: 12.6 µM [inhibitor, partial curve]

SMILES	activity change, negative = inhibition	Potency
O=C(Nc1nc(-c2cccs2)cs1)c1ccc(S(=O)(=O)N2CCCC2)cc1	inconclusive: -18.2% [inhibitor]	–
CCOC(=O)Cn1nnnc1CN(Cc1ccc(OC)cc1)Cc1cc2cc(C)ccc2[nH]c1=O	–	inconclusive: 39.8 µM [inhibitor, single point]
CC(C)(C)C(=O)[C@@H]1[C@@H]2C(=O)N(c3ccc4c(c3)OCCO4)C(=O)[C@@H]2C2c3ccccc3C=CN21 (stereo partly specified)	inconclusive: -16.3% [inhibitor]	–
Nc1ccc(O)cc1	–	inconclusive: 31.6 µM [inhibitor, partial curve]
CCC(c1nnnn1Cc1cccs1)N1CCN(c2nc3ccccc3s2)CC1 (stereo unspecified)	inactive: -2.21%	–
Oc1ccc(Cl)cc1/C=N/c1nc2ccccc2[nH]1	–	inconclusive: 25.1 µM [inhibitor, partial curve]
Cc1noc(NS(=O)(=O)c2ccc(N/C=C/C(=O)c3ccc4c(c3)OCO4)cc2)c1C	–	inconclusive: 25.1 µM [inhibitor, partial curve]
COc1ccc(C(=O)NCCn2ccc3ccccc32)cc1OC	inactive: -3.53%	–
Cc1ncc(CSC(=N)N)n1Cc1ccccc1	inactive: 1.29% [at 11.5 µM]	–
NCCCc1c(-c2ccccc2)nc(N)[nH]c1=O	inactive: 1.27% [at 11.5 µM]	–
NC(=O)C[C@@H]1N[C@]2(C(=O)Nc3ccccc32)[C@@H]2C(=O)N(c3cc(C(F)(F)F)ccc3Cl)C(=O)[C@H]12	–	inconclusive: 31.6 µM [inhibitor, single point]
Cc1nn(C)c(C)c1CN(C)C(=O)c1cc2nc(-c3ccco3)cc(C(F)(F)F)n2n1	–	inconclusive: 20 µM [inhibitor, partial curve]
CCNc1ncc2nc(-c3cn(C)c4ccccc34)c(=O)n(Cc3ccc(F)cc3)c2n1	–	inconclusive: 2 µM [inhibitor, full curve]
Cc1[nH]nc(N=CC2=C(O)CC(c3ccco3)CC2=O)c1-c1ccccc1 (stereo unspecified)	–	inconclusive: 31.6 µM [inhibitor, partial curve]
O=C(O)C1CCCN1S(=O)(=O)c1cccc2cccnc12 (stereo unspecified)	inactive: -2.91%	–
CCOC(=O)N1CCN(C(=O)Nc2ccc3nc(C)c(C)nc3c2)CC1	–	inconclusive: 31.6 µM [inhibitor, partial curve]
COc1cccc(Nc2ncc3nc(C)c(=O)n(CCc4ccccc4)c3n2)c1	–	inconclusive: 31.6 µM [inhibitor, single point]
CCCC[C@@H]1C[C@H]1C(NC(=O)c1ccccc1)c1ccc(C(F)(F)F)cc1 (stereo partly specified)	inactive: -0.327%	–
O=C(NCc1ccco1)c1cccn2c(=O)c3cc(Br)ccc3nc12	–	inconclusive: 25.1 µM [inhibitor, partial curve]
Nc1nc(N)nc(CCCc2nc(N)nc(N)n2)n1	–	inconclusive: 5.01 µM [inhibitor, single point]
C/C(CCN1CCCCc2nc(C)c(C)cc21)=N\O[C@@H](C)CN1CCCc2nc(C)c(C)cc21	inactive: -3.41% [at 11.5 µM]	–
CCN1CCN(C(c2cc3cc4c(cc3[nH]c2=O)OCO4)c2nnnn2C(C)(C)CC)CC1 (stereo unspecified)	–	inconclusive: 31.6 µM [inhibitor, partial curve]
COc1ccc2cc(C(c3nnnn3Cc3ccc(F)cc3)N3CCCCCC3)c(=O)[nH]c2c1 (stereo unspecified)	–	inconclusive: 25.1 µM [inhibitor, partial curve]
Cc1ccc(C(=O)Nc2nc3ccccc3c(=O)s2)cc1	inactive: -2.66%	–

SMILES	activity change, negative = inhibition	Potency
c1ccc(-c2ccc(N3CC[C@@]4(CCCNC4)C3)cc2)cc1	inactive: -0.743%	–
C=CCc1cccc(/C=N/c2ncccc2O)c1O	–	inconclusive: 25.1 µM [inhibitor, partial curve]
CCOC(=O)COc1ccc2nsnc2c1Cl	–	inconclusive: 25.1 µM [inhibitor, partial curve]
C=CCn1cnc2c(c1=O)c1nc3ccccc3nc1n2-c1ccccc1	inactive: -15.9%	–
COc1ccc(-c2onc3ccc(Cl)cc23)cc1OC	–	inconclusive: 25.1 µM [inhibitor, single point]
CSc1nc2oc3c(c2c2nncn12)CC(C)(C)SC3	inconclusive: -15.5% [inhibitor]	–
CC(=O)OC(C)C	inactive: -3.37%	–
Cc1ccc2c(CSc3nc4ccccc4c(=O)n3CCCO)cc(=O)oc2c1	inactive: 1.67%	–
C[C@H]1/C=C\CC(=O)OC[C@H](C)C(=O)N2CCC[C@@H]2C(=O)OC1	inactive: -5.3% [at 11.5 µM]	–
CC1CN(c2nc3ccccn3c(=O)c2/C=C(\C#N)S(=O)(=O)c2ccccc2)CC(C)O1 (stereo unspecified)	–	inconclusive: 31.6 µM [inhibitor, single point]
Nc1cc(C(=O)O)ccc1N1CCCCCC1	inactive: 4.6%	–
O=C(Nc1cccc(F)c1)c1cccc(S(=O)(=O)N2CCOCC2)c1	–	inconclusive: 31.6 µM [inhibitor, partial curve]
CCN1/C(=C/C(=O)c2ccco2)Sc2ccccc21	–	inconclusive: 25.1 µM [inhibitor, partial curve]
Cc1nn(-c2ccc(C(=O)O)cc2)c(N)c1-c1ccccc1	inactive: -0.518%	–
O=C(O)c1cc(O)c2c(c1)C(=O)c1cccc(O)c1C2=O	–	inactive and inconclusive: 39.8 µM [inhibitor, partial curve]
Cc1noc(/C=C/N(C)C)c1S(=O)(=O)N(C)CC(=O)N1CCc2ccccc21	–	inconclusive: 39.8 µM [inhibitor, single point]
O=C(O)C1Nc2c(O)cccc2C2C=CCC12 (stereo unspecified)	–	inconclusive: 31.6 µM [inhibitor, single point]
COC(=O)Cc1cc(=O)n(-c2nc3ccccc3[nH]2)[nH]1	–	inconclusive: 31.6 µM [inhibitor, partial curve]
COc1ccc2oc(=O)c(C(=O)N3CCN(C45CC6CC(CC(C6)C4)C5)CC3)cc2c1	–	inconclusive: 25.1 µM [inhibitor, partial curve]
O=Cc1ccc(OC2C=CC(c3ccccc3)OC2CO)cc1 (stereo unspecified)	inactive: -0.979% [at 11.5 µM]	–
COc1cccc(Nc2ncc3nc(-c4cccs4)c(=O)n(CCC#N)c3n2)c1	–	inconclusive: 5.01 µM [inhibitor, full curve]
COc1ccccc1Nc1nc(N)nc(CN2CCOCC2)n1	inactive: -0.848%	–
O=C(/C=C\Nc1cccc(F)c1)c1ccc2c(c1)OCO2	–	inconclusive: 25.1 µM [inhibitor, partial curve]
